Results published in paper PMC7819943, “Rice protein-binding microarrays: a tool to detect cis-acting elements near promoter regions in rice”.
Some of the results follow.

biological target: T1, OsWOX13 (Oryza sativa, UniProt Q5QMM3 1-267); assay: protein-binding microarray (RPBM); PBS, 2% BSA, 51.3 ng/ul salmon testes DNA, 50 uM zinc acetate, 200 nM TF, 25 C, 1 h; high values mean tight binding; settings: protein: recombinant; tags: N-terminal polyhistidine and DsRed monomer fusion (pET32a); label: CyDye5-dUTP incorporated in the synthesized complementary strand; 3' TTTTT single-stranded linker to array surface; dsDNA, one strand shown
T1 sequence: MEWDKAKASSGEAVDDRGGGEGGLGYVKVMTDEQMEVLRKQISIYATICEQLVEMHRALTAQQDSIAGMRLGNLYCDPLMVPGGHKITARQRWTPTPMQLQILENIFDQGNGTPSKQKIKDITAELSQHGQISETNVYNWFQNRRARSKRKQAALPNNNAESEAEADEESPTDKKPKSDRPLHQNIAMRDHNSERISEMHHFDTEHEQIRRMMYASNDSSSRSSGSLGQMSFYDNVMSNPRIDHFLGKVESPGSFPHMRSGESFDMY
Outline: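 Binding signal is reported as fluorescence intensity per feature (arbitrary units) from an Axon 4000B scanner. Incubation used 200 nM of each Ni–NTA-purified, N-terminally polyhistidine- and DsRed-fused transcription factor from E. coli BL21-CodonPlus on a double-stranded custom Agilent array for 1 h at 25 °C, with 50 µM zinc acetate in the buffer, followed by washing.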

Sequence	binding signal
GCTGAATTGTTCAAAATTGCCAGTGCTTGCCATCATAGGACGGAGTCACCTAGTGCAG	4000 fluorescence intensity (a.u.)
ACGTCTAATTACTGCTTCAGGACTGGCTTATCATCGAAGTCGGAGTCACCTAGTGCAG	17000 fluorescence intensity (a.u.)
CGAATTTATTAAGTCTAATTAATTCGTCATTAGTAAATATCGGAGTCACCTAGTGCAG	5070 fluorescence intensity (a.u.)
CACCTGATTTAAACGAGTGAAACATTTTCGATCTGAAACACGGAGTCACCTAGTGCAG	13200 fluorescence intensity (a.u.)
TATAGATTTAAATCAGTGTATCCCAAAGCTACAAATTTAGCGGAGTCACCTAGTGCAG	12700 fluorescence intensity (a.u.)
ATCCACTAATTAGGCAATTTCCCGCTGTCAAGTATGCTACCGGAGTCACCTAGTGCAG	41600 fluorescence intensity (a.u.)
TATTATTGCTGGCAACATTAATTGGCTTGTCTTTGACAAGCGGAGTCACCTAGTGCAG	3250 fluorescence intensity (a.u.)
GGCCTCTAGGATGATTGGCAAGGTGGCGGTCTAGCTTGACCGGAGTCACCTAGTGCAG	14700 fluorescence intensity (a.u.)
CTAAATTAGTAGATAAGTTTCTCTAACTAAAACTGGTCTACGGAGTCACCTAGTGCAG	25200 fluorescence intensity (a.u.)
CAAATTATCTGTCATGCAAGTTGAAGAAGCAATCATAGATCGGAGTCACCTAGTGCAG	5070 fluorescence intensity (a.u.)
GTGATTGATATCGATTCTGATTGATGCCTTTGCCTGGTACCGGAGTCACCTAGTGCAG	57000 fluorescence intensity (a.u.)
CCTAGTTTGATTGTTGTCAAGACCAGATATGAAGACTCCCCGGAGTCACCTAGTGCAG	23800 fluorescence intensity (a.u.)
TAAATATACTTGATTTACTGCTGTGTGACCATATATGCTTCGGAGTCACCTAGTGCAG	12000 fluorescence intensity (a.u.)
ACAACCAACTGATTGAAGACGTCCACGTGCTTCCTAAGATCGGAGTCACCTAGTGCAG	35200 fluorescence intensity (a.u.)
GTTGACGTGCGTGTGCTTGATTAGCAGAGATGCCTGAAGACGGAGTCACCTAGTGCAG	7090 fluorescence intensity (a.u.)
ATAAATAATACTTAATCAATTATGTGCTAATGAGGTTTCTCGGAGTCACCTAGTGCAG	7620 fluorescence intensity (a.u.)
ATTGTTGCTGCTGCTGGATTGATTAGTGGTTAAGCAGATTCGGAGTCACCTAGTGCAG	5320 fluorescence intensity (a.u.)
CAAAATATGTTTGTCAAAATTATGACAAGTTTCTACATTACGGAGTCACCTAGTGCAG	3290 fluorescence intensity (a.u.)
CTTGTTTTGATTGAGACCAATTTATTGGTAATGCCCATGCCGGAGTCACCTAGTGCAG	36600 fluorescence intensity (a.u.)
CAATTATTAATTTAATGAAACTATTTATAAATATTACTATCGGAGTCACCTAGTGCAG	13600 fluorescence intensity (a.u.)
GGGATAACTATGTCTAGTCAATTCTAACATTTATCTTCCCCGGAGTCACCTAGTGCAG	5900 fluorescence intensity (a.u.)

Sequence	binding signal
TTTACTAATGATTGATCTGGATCATAGGTGCGGCGTGTTTCGGAGTCACCTAGTGCAG	37500 fluorescence intensity (a.u.)
CTAGTTTTATGATTGAGGGATGTGACTCAATCAAGAGCGACGGAGTCACCTAGTGCAG	31100 fluorescence intensity (a.u.)
ATTAATTATAGTAGATTTTGTTAACCTAGCTAGAAACTATCGGAGTCACCTAGTGCAG	18900 fluorescence intensity (a.u.)
ACCTTAACTGCAGTTAAGACTAATGAAAGTTTCACCTGCACGGAGTCACCTAGTGCAG	24800 fluorescence intensity (a.u.)
CATTAATTAAACGATCCGCCATTACCCGCACAAGCACCGGCGGAGTCACCTAGTGCAG	32600 fluorescence intensity (a.u.)
ATCACAGATGATTTTGTTGTGACAGAATTCTATGTATACACGGAGTCACCTAGTGCAG	13500 fluorescence intensity (a.u.)
AGAATTGATAGTTAAAGAACTTAATAATATTGTTGATATTCGGAGTCACCTAGTGCAG	17700 fluorescence intensity (a.u.)
CTGATTAGTGTTTAGAATCCACCTTCATTCTCCTCCTTGGCGGAGTCACCTAGTGCAG	37000 fluorescence intensity (a.u.)
CATCAGATCATTGATCAATGTTTCATCAGCTCATCACTTCCGGAGTCACCTAGTGCAG	3990 fluorescence intensity (a.u.)
GAGACATCAACTAATTATTTACTACAGAAAAGAGGTCGTGCGGAGTCACCTAGTGCAG	11500 fluorescence intensity (a.u.)
CTTAATTAGCATGAAACACAAGTAGTATATGATTACACCACGGAGTCACCTAGTGCAG	33100 fluorescence intensity (a.u.)
TTCCGGTGATTAGTCAACTGCCACGACCAGATTAATCTACCGGAGTCACCTAGTGCAG	20300 fluorescence intensity (a.u.)
CAAATTAGAATTTGGTATCTAATTTGTTTATATCGAGGGGCGGAGTCACCTAGTGCAG	17700 fluorescence intensity (a.u.)
CAGAAAATTTTCATATTTATGAATTCATCTATTTAATGTACGGAGTCACCTAGTGCAG	5640 fluorescence intensity (a.u.)
TTCATAAATTAGTTGAGCTGCTCTGATCGTTTGAGCTTGGCGGAGTCACCTAGTGCAG	15100 fluorescence intensity (a.u.)
CTCTAGCGGTGAAGATGCCTTGATTGGTGATGAAGATTGCCGGAGTCACCTAGTGCAG	8840 fluorescence intensity (a.u.)
CTCTAGGTAATTGGATTGGAGCCAGGGATTTATATATAGTCGGAGTCACCTAGTGCAG	14100 fluorescence intensity (a.u.)
AAATTCGTGAAGAAATCAATTAATTTAATTATTGTCCCACCGGAGTCACCTAGTGCAG	13700 fluorescence intensity (a.u.)
GATTTGATTTTGAGGCGGATGGAGGAGTTTGAACGGAGGCCGGAGTCACCTAGTGCAG	3840 fluorescence intensity (a.u.)
ATGTACCAATCGATCACCCATCAATTCATCATCAAGATTGCGGAGTCACCTAGTGCAG	4800 fluorescence intensity (a.u.)
AGTTCAACAAATTGTTTCACTCATCACTCATCACTCGTTCCGGAGTCACCTAGTGCAG	4690 fluorescence intensity (a.u.)

Sequence	binding signal
ACTTTTAACTCAAAATTTAAACTTTAAAGTCAAATTTTGACGGAGTCACCTAGTGCAG	6980 fluorescence intensity (a.u.)
TATAATAATTAAAACTCAATCAATCATACGTTAATAGCACCGGAGTCACCTAGTGCAG	20000 fluorescence intensity (a.u.)
CGTAATCACTGAATGCTAATCTATCACTAGTAAAACCCATCGGAGTCACCTAGTGCAG	18700 fluorescence intensity (a.u.)
AAAATTGAATATTGATGAATAAATTGATGGTGAAATTTATCGGAGTCACCTAGTGCAG	25200 fluorescence intensity (a.u.)
ACTAATTTAGTACGTACTACTCCAGTAGTTACACCTGCTTCGGAGTCACCTAGTGCAG	13000 fluorescence intensity (a.u.)
TGTAAGTTTATAAATTAAACACAACTGGGCAGTTCCACTCCGGAGTCACCTAGTGCAG	3690 fluorescence intensity (a.u.)
TCATAACTATTTTAATTGACATACAAACAATGAGGCGGCACGGAGTCACCTAGTGCAG	58300 fluorescence intensity (a.u.)
TCATCTCCTATTTAATTGGTGGTTTATTGTCGGATCGACTCGGAGTCACCTAGTGCAG	5740 fluorescence intensity (a.u.)
CATAACTGCAAATTTATCTCCCCGTTCGAAGTTCCCACGCCGGAGTCACCTAGTGCAG	40400 fluorescence intensity (a.u.)
ACGGGACAAGCTAAGCTTAATTGGCTCTTTGTAGCGCATGCGGAGTCACCTAGTGCAG	5570 fluorescence intensity (a.u.)
ATCTACAACTTTCTAATTGACTATTTTATTATTTGAGGTCCGGAGTCACCTAGTGCAG	9250 fluorescence intensity (a.u.)
AACCATCTATCAACTTCCTAATTAATGGCTACCTGTAGTACGGAGTCACCTAGTGCAG	20700 fluorescence intensity (a.u.)
TACTCCAACTAATTGACTTGCTCATTGCATCCCAGTTAGGCGGAGTCACCTAGTGCAG	35100 fluorescence intensity (a.u.)
TTAAATGATTATATTGCTTGTATTTTGTATAAGTTTATTTCGGAGTCACCTAGTGCAG	11000 fluorescence intensity (a.u.)
CCTCCAATTAAGCAACCTCGGCTCACATTCACCACCAGCACGGAGTCACCTAGTGCAG	8890 fluorescence intensity (a.u.)
TTTTCCTGTCTAAATTATCTCCAAACCGTAGGAATTTTCGCGGAGTCACCTAGTGCAG	7500 fluorescence intensity (a.u.)
AATTCATTTATAGCCAATCTAATAGCTCGTTCATACAATACGGAGTCACCTAGTGCAG	6520 fluorescence intensity (a.u.)
TGTAATTATAAACTTCAAATTATGTCTAGTCGCACCGATACGGAGTCACCTAGTGCAG	22000 fluorescence intensity (a.u.)
ATTTTAATAGGAGATATTTATAATTGTTTACACACTTAAACGGAGTCACCTAGTGCAG	3260 fluorescence intensity (a.u.)
GATACTAGTTAATTTATATTATATTATAAATAAGGTAATTCGGAGTCACCTAGTGCAG	16700 fluorescence intensity (a.u.)
GGTCTGTCAGCCAACAATCACAGGAATCATTCCTAGCCACCGGAGTCACCTAGTGCAG	10300 fluorescence intensity (a.u.)

Sequence	binding signal
ACAAACTTAAAATTAAATTAAAATTAAAGTGACTTAGGATCGGAGTCACCTAGTGCAG	10700 fluorescence intensity (a.u.)
TTGGTTGATTAATACATAAGGTAGTCTTGGTTATATCCGACGGAGTCACCTAGTGCAG	16600 fluorescence intensity (a.u.)
ATTTTGTCTATCATGACATTGATATCGACATCCACATTGACGGAGTCACCTAGTGCAG	9630 fluorescence intensity (a.u.)
ATGAGTGACTAGTATATGCATGTTGATCGATCCTCCGGCGCGGAGTCACCTAGTGCAG	3240 fluorescence intensity (a.u.)
TTTGTATTAATTGATGCTATATGGGCCAGAACATCAGGCACGGAGTCACCTAGTGCAG	37300 fluorescence intensity (a.u.)
GATAAACTTGTGATTTTATATAACTTGAACAACAACGCTACGGAGTCACCTAGTGCAG	6970 fluorescence intensity (a.u.)
ATCAATCATCGTCCACACATTGAAATGTGGACCTAGTGACCGGAGTCACCTAGTGCAG	6220 fluorescence intensity (a.u.)
GATATTTAATTACAAGGCAAATATCACTTATTTAAGTTTTCGGAGTCACCTAGTGCAG	4510 fluorescence intensity (a.u.)
TATTTTCTGTAATTTTATCCATGTTTTGTGTCTGAGTTTCCGGAGTCACCTAGTGCAG	3810 fluorescence intensity (a.u.)
GACAGACAGACTATTGTGGAGTACAACCTGATAATCAGACCGGAGTCACCTAGTGCAG	3610 fluorescence intensity (a.u.)
CCAATCAAACTTTTAATTTTAACGTTAACTAAACACGCCCCGGAGTCACCTAGTGCAG	21500 fluorescence intensity (a.u.)
GATTAATTTACTAGACGAATCTTTTAAGCCTAATTACTCCCGGAGTCACCTAGTGCAG	36100 fluorescence intensity (a.u.)
ACTATATTTGATTTAAACTCTTGTTTTCTACTCCTAATACCGGAGTCACCTAGTGCAG	7860 fluorescence intensity (a.u.)
TCTAATTGGTTACAAACTTTATAGTTTTCATGGGAGGCCGCGGAGTCACCTAGTGCAG	40500 fluorescence intensity (a.u.)
TAATAAATGTCTAATCAGAGCTGTTAGTAGGAAAGAGTAGCGGAGTCACCTAGTGCAG	6500 fluorescence intensity (a.u.)
GTTAATTGACCCCGCCCGTTCTATCCCATCGTCGCATCGACGGAGTCACCTAGTGCAG	30000 fluorescence intensity (a.u.)
ATTCCGATTGGCTGTGGTTGGTTTGATTTCCTGTTAAGCACGGAGTCACCTAGTGCAG	10300 fluorescence intensity (a.u.)
TTTCTTATTATACAAACACTTGATTAGTCTACGATATTGGCGGAGTCACCTAGTGCAG	4180 fluorescence intensity (a.u.)
TTTGGTCAATCAAGTCAAACTGCTTCAAATTTAACTAAGTCGGAGTCACCTAGTGCAG	12700 fluorescence intensity (a.u.)
ATATCAAATCAATCGCTTCATGATGCCCCGACCTGTAAAACGGAGTCACCTAGTGCAG	4350 fluorescence intensity (a.u.)
ATCAATTATTCAACTTGATTACATAGAACATGACCATCAACGGAGTCACCTAGTGCAG	19700 fluorescence intensity (a.u.)
